Source: the supplement of paper PMC5499739
Over roughly 16,000 sequences, “Z-score” has its median near -0.37; the highest 2% begin near 3.2. The list shows a part of the results.

Tested on: RBM10 RRM1-ZnF (GST-tagged construct)
Test: RNAcompete 7-mer binding Z-score; higher = stronger binding preference
Experimental: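 RNAcompete: 20 pmol GST-tagged RBM10 RNA-binding constructs were incubated with a designed RNA pool of about 241,000 sequences up to 41 nt (1.5 nmol) on glutathione beads for 30 min at 4 °C and washed. Bound RNAs were identified by microarray hybridisation. Each RNA 7-mer is scored by a one-sided Z-score of its enrichment, computed over probes that contain the 7-mer within longer pool sequences.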

| Sequence | RNAcompete 7-mer binding Z-score |
| --- | --- |
| UUAGGUU | 0.69 |
| GUUUUAU | -0.425 |
| CAAAAAC | -0.772 |
| UUUAUUU | -0.678 |
| CCCAAAC | -0.672 |
| CGCUUGU | -0.769 |
| ACUAAGC | -0.493 |
| AAGCGGG | 3.02 |
| GUUAUAC | -0.243 |
| CGAGGUC | -0.0674 |
| GGGCGUC | 1.13 |
| UAGUCGG | 0.404 |
| CGGACUA | 0.0105 |
| CAAGAGC | -0.0479 |
| GGGUGGC | 2.89 |
| UUAUAAG | -0.249 |
| CGACAUG | 0.192 |
| GGCUUUG | 0.0105 |
| CCUACAG | -0.789 |
| GGGAAAU | 2.91 |
| CAGCAGC | -0.337 |
| CUUCGCU | -0.906 |
| CGCUCCC | -0.587 |

| Sequence | RNAcompete 7-mer binding Z-score |
| --- | --- |
| ACUGGCC | -0.451 |
| GCGACAA | 0.199 |
| CCCCGCG | -0.113 |
| GAAGACA | 0.316 |
| UCGCAAC | -0.694 |
| AACCGUG | -0.331 |
| GACUUUU | -0.681 |
| CCCUUAU | -0.831 |
| AGUGUUC | -0.448 |
| AGAAAUC | -0.698 |
| GCAUCGU | -0.23 |
| AGUCCUG | -0.561 |
| UGUAGGG | 3.6 |
| AUUAAGG | 1.2 |
| UGUUGUC | -0.574 |
| GAAUAUG | 0.69 |
| CAGAGUC | -0.373 |
| AACUCCU | -0.87 |
| AGGACCA | -0.279 |
| AGUAAUC | -0.389 |
| GCAAGGU | 1.94 |
| UUUACCU | -0.935 |
| GACGCGA | -0.314 |

| Sequence | RNAcompete 7-mer binding Z-score |
| --- | --- |
| UUUACCC | -0.857 |
| GUUUUCA | -0.483 |
| GACCGCG | -0.678 |
| UAUUUAG | -0.383 |
| UCCUUGC | -0.733 |
| CUCGUAA | -0.779 |
| AUAUUCG | -0.396 |
| UUGGUGU | 1.51 |
| UGCUUGC | -0.675 |
| UGACUGC | -0.519 |
| UGCGUAC | -0.0999 |
| ACCGAAG | -0.509 |
| CCGCAGC | -0.467 |
| CUAACUU | -0.834 |
| UUCGCCC | -0.701 |
| CUUCUUG | -0.776 |
| GUCUGGC | -0.249 |
| GAAGUUU | -0.301 |
| GUGCAAU | 0.378 |
| GAUUCAU | -0.509 |
| GUCUGUG | -0.0187 |
| UCAGUAG | 0.183 |
| GCGUGCA | 0.205 |

| Sequence | RNAcompete 7-mer binding Z-score |
| --- | --- |
| UGUCGUC | -0.532 |
| ACCUUCU | -0.951 |
| ACUCCCU | -0.753 |
| UAGAGAC | 0.153 |
| ACGAGGC | 0.319 |
| UUUGUAG | -0.321 |
| ACCAUCA | -0.815 |
| CGUACGA | -0.555 |
| CACGGCU | -0.49 |
| AUGAACU | -0.425 |
| UGGGCAA | 1.82 |
| UUUGCAG | -0.405 |
| GGAACCG | 0.94 |
| UCCAUAA | -0.88 |
| UAGACAC | -0.363 |
| UUUCCAU | -0.74 |
| AAUAUUU | -0.834 |
| AGCCGGG | 0.907 |
| CACAACG | -0.513 |
| GGACCUC | 0.069 |
| AGUCGAU | -0.106 |
| GUGUCAA | 0.00404 |
| GUUGAGA | 0.891 |

| Sequence | RNAcompete 7-mer binding Z-score |
| --- | --- |
| CCGGGGC | 0.962 |
| CCUAAUU | -0.772 |
| CGGGUCA | 1.1 |
| UUCCUUC | -0.782 |
| GUCACGG | 0.936 |
| UUCUUCU | -0.756 |
| GAUCCUG | -0.691 |
| AUUCAUG | -0.532 |
| CCUAGGG | 0.735 |
| AAGACUA | -0.227 |
| GAAGCAA | 0.264 |
| AUAGCAU | -0.379 |
| UAAGGUA | 1.5 |
| CGAGUAA | 0.144 |
| AGCUGGC | 0.16 |
| CUCUACA | -0.831 |
| CUUGCUU | -0.893 |
| CCGGGGA | 1.27 |
| AUAAGAA | 0.254 |
| AUGAUCA | -0.24 |
| AGGGCCC | -0.35 |
| GCUGGAU | 0.586 |
| GAUACCG | -0.402 |

| Sequence | RNAcompete 7-mer binding Z-score |
| --- | --- |
| AUGCCUU | -0.831 |
| CCCUAAC | -0.711 |
| GUUCCGG | 0.192 |
| ACAUUGU | -0.444 |
| CUGUGUU | -0.854 |
| CAAACCG | -0.633 |
| UAUGUUG | -0.259 |
| CCACAAU | -0.811 |
| GCCCCUA | -0.386 |
| AAUUGCC | -0.626 |
| CGACAUU | -0.506 |
| GAACGCA | -0.142 |
| GUUAAUA | -0.233 |
| UAGAGCC | -0.376 |
| AUGUUCG | -0.399 |
| GCCUGCG | -0.383 |
| CGAUGCC | -0.542 |
| GAACAGC | -0.253 |
| UACGAAA | -0.0739 |
| CGCCAGC | -0.165 |
| CCAGGGG | 1.46 |
| UCGCUUA | -0.545 |
| AGGCACG | 0.209 |

| Sequence | RNAcompete 7-mer binding Z-score |
| --- | --- |
| GCCGACU | -0.75 |
| CCCUGAU | -0.457 |
| CUGCCGG | 0.00404 |
| GCGAUAA | 0.235 |
| CUGCGGC | 0.0138 |
| GUGAAUG | 1.17 |
| UGUGUGC | -0.035 |
| CCACGUC | -0.513 |
| ACAUGGA | 1.7 |
| CGGAGGG | 2.91 |
| AGAACUC | -0.759 |
| CCGGAUU | -0.441 |
| CGCUCCA | -0.5 |
| AUCGGUA | 0.404 |
| CGGGCAG | 1.88 |
| GUUAUUG | 0.329 |
| UCGCGAU | -0.701 |
| UGACCGC | -0.438 |
| CUACCGG | -0.542 |
| ACACUGC | -0.61 |
| AAAGAUA | 0.0333 |
| ACACGGG | 1.81 |
| GUAGGGC | 2.49 |

| Sequence | RNAcompete 7-mer binding Z-score |
| --- | --- |
| GCAUCGG | 0.306 |
| UUCGGCA | -0.529 |
| CUACCCA | -0.818 |
| GACGCUC | -0.681 |
| CCGUGGG | 1.88 |
| AAGGGAC | 3.18 |
| CGUGCUU | -0.61 |
| UAACUUA | -0.376 |
| GGACGGG | 4.52 |
| GUGGGUG | 4.14 |
| ACUUCGG | -0.191 |
| GUCCAAC | -0.672 |
| UCCUCCG | -0.613 |
| GAUGUCA | -0.178 |
| GCACUGA | -0.0447 |
| UGGGUGC | 2.92 |
| CGGGACC | 0.582 |
| CGUUUCC | -0.792 |
| UGACAAC | -0.223 |
| GUUCAUG | -0.279 |
| CGGUUGA | 1.01 |
| AUUCCGG | -0.555 |
